Experimental data: patent US20230285506A1 (ACCELERON PHARMA, published 2023)

Assays:
BMP10 [1] = biological target: T1, BMP10 (human, UniProt O95393 317-424); assay: cell-based or functional assay
T1 sequence: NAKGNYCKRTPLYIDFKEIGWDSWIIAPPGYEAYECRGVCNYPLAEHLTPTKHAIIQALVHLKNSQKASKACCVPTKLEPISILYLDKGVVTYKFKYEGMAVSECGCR

BMP10 [2] = biological target: T1, BMP10; assay: cell-based or functional assay; remark: listed apart in the source
BMP9 [3] = biological target: T2, BMP9 (human, UniProt Q9UK05 320-429); assay: SPR kinetics
T2 construct: also called hBMP-9; hBMP9
T2 sequence (looked up): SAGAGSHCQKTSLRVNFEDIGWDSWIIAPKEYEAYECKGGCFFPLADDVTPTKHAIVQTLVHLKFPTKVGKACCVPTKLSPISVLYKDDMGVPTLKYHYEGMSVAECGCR

BMP9 [4] = biological target: T2, BMP9; assay: SPR kinetics; CHO-cell-derived protein
BMP10 [5] = biological target: T1, BMP10; assay: SPR kinetics; CHO-cell-derived protein
BMP2 = biological target: T3, BMP2 (human, UniProt P12643 283-396); assay: SPR (Biacore); captured hENG(26-586)-hFc, soluble ligand; - means undetectable
T3 construct: also called hBMP-2
T3 sequence (looked up): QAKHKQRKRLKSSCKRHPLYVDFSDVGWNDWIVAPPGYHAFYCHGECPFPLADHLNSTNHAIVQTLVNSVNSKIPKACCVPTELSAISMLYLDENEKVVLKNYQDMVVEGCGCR
Description: (§1) Considered a co-receptor, ENG is widely thought to function by facilitating the binding of TGF-01 and -3 to multi-protein complexes of type I and type II receptors. To investigate the possibility of direct ligand binding by isolated ENG, surface plasmon resonance (SPR) methodology (Biacore™ instrument) was used to screen for binding of captured proteins comprising the full-length extracellular domain of ENG to a variety of soluble human TGF-β family ligands.
(§2) Thus, selective high-affinity binding of BMP9 and BMP10 is a previously unrecognized property of the ENG extracellular domain.

BMP7 = biological target: T4, BMP7 (human, UniProt P18075 293-431); assay: as above
T4 construct: also called hBMP-7
T4 sequence (looked up): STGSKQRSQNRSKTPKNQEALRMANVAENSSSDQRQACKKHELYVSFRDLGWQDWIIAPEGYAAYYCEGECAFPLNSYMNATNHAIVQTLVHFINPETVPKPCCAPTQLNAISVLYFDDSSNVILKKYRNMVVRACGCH
Description: as §1, §2

hBMP-2/7 = biological target: T5, hBMP-2/7 (human, UniProt P12643 283-396; P18075 293-431); assay: as above
T5 sequence (looked up) 1: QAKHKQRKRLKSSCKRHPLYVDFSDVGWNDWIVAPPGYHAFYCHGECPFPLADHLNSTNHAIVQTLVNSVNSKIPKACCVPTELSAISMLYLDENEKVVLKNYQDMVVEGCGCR
T5 sequence (looked up) 2: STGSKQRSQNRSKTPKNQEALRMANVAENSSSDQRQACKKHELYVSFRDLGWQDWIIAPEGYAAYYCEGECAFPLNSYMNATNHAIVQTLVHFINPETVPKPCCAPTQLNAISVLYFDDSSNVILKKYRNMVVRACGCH
Description: as §1, §2

TGF-β1 = biological target: T6, TGF-β1 (human, UniProt P01137 partial chain); assay: as above
T6 construct: also called hTGF-β1; hTGF-βI
Description: as §1, §2

TGF-β2 = biological target: T7, TGF-β2 (human, UniProt P61812 303-414); assay: as above
T7 construct: also called hTGF-β2
T7 sequence (looked up): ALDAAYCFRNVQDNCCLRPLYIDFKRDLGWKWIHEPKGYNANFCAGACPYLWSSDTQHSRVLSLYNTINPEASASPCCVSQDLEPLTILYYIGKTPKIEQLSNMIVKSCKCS
Description: as §1, §2

TGF-β3 = biological target: T8, TGF-β3 (human, UniProt P10600 301-412); assay: as above
T8 construct: also called hTGF-β3
T8 sequence (looked up): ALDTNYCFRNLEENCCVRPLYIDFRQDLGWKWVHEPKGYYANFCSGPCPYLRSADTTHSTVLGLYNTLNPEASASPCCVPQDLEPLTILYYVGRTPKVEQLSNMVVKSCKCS
Description: as §1, §2

activin A = biological target: T9, activin A (human, UniProt P08476 311-426); assay: as above
T9 construct: also called hActivin A
T9 sequence (looked up): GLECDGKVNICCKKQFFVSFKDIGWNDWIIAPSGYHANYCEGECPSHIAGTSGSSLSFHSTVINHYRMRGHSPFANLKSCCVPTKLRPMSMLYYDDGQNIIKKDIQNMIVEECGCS
Description: as §1, §2

Chain of TGF-β1 (P01137 279-390 limits assumed): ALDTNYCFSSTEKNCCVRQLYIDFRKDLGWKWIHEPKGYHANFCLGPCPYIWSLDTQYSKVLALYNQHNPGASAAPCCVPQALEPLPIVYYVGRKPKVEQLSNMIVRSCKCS

B1: BMP10pro(22-312)-hFc (Fc fusion)
chain: SPIMNLEQSPLEEDMSLFGDVFSEQDGVDFNTLLQSMKDEFLKTLNLSDIPTQDSAKVDPPEYMLELYNKFATDRTSMPSANIIRSFKNEDLFSQPVSFNGLRKYPLLFNVSIPHHEEVIMAELRLYTLVQRDRMIYDGVDRKITIFEVLESKGDNEGERNMLVLVSGEIYGTNSEWETFDVTDAIRRWQKSGSSTHQLEVHIESKHDEAEDASSGRLEIDTSAQNKHNPLLIVFSDDQSSDKERKEELNEMISHEQLPELDNLGLDSFSSGPGEEALLQMRSNIIYDSTATG[gap - human IgG1 Fc and a few adjoining residues]
fold greater antagonism of BMP10 activity than BMP10pro(22-315)-hFc; SBE4-luc reporter (BMP10 [1]): ≥ 3 fold | IC50 (BMP 10); SBE4-luc luciferase reporter in HMVEC cells (BMP10 [2]): 17.7 ng/ml and 150 pM

B4: BMP10pro(22-315)-hFc (Fc fusion)
chain: SPIMNLEQSPLEEDMSLFGDVFSEQDGVDFNTLLQSMKDEFLKTLNLSDIPTQDSAKVDPPEYMLELYNKFATDRTSMPSANIIRSFKNEDLFSQPVSFNGLRKYPLLFNVSIPHHEEVIMAELRLYTLVQRDRMIYDGVDRKITIFEVLESKGDNEGERNMLVLVSGEIYGTNSEWETFDVTDAIRRWQKSGSSTHQLEVHIESKHDEAEDASSGRLEIDTSAQNKHNPLLIVFSDDQSSDKERKEELNEMISHEQLPELDNLGLDSFSSGPGEEALLQMRSNIIYDSTARIRTG[gap - human IgG1 Fc and a few adjoining residues]
IC50 (BMP 10); SBE4-luc luciferase reporter in HMVEC cells (BMP10 [2]): 61.2 ng/ml and 517 pM

Other lines, results leading:

fold decrease in dissociation rate compared to the full-length construct (BMP9 [3]): 10 fold
B2: hENG(26-346)-hFc (Fc fusion)
chain: ETVHCDLQPVGPERDEVTYTTSQVSKGCVAQAPNAILEVHVLFLEFPTGPSQLELTLQASKQNGTWPREVLLVLSVNSSVFLHLQALGIPLHLAYNSSLVTFQEPPGVNTTELPSFPKTQILEWAAERGPITSAAELNDPQSILLRLGQAQGSLSFCMLEASQDMGRTLEWRPRTPALVRGCHLEGVAGHKEAHILRVLPGHSAGPRTVTVKVELSCAPGDLDAVLILQGPPYVSWLIDANHNMQIWTTGEYSFKIFPEKNIRGFKLPDTPQGLLGEARMLNASIVASFVELPLASIVSLHASSCGGRLQTSPAPIQTTPPTG[gap - human IgG1 Fc and a few adjoining residues]

Kd (BMP9 [4]): 33 pM | koff (BMP9 [4]): 0.0025 s⁻¹ | Kd (BMP10 [5]): 490 pM | koff (BMP10 [5]): 0.011 s⁻¹ | binding result (BMP2): no binding (tested: 100 nM) | binding result (BMP7): no binding (tested: 100 nM) | binding result (hBMP-2/7): no binding (tested: 100 nM) | binding result (TGF-β1): no binding (tested: 100 nM) | binding result (TGF-β2): no binding (tested: 100 nM) | binding result (TGF-β3): no binding (tested: 100 nM) | binding result (activin A): no binding (tested: 100 nM)
B3: hENG(26-586)-hFc (Fc fusion)
chain: ETVHCDLQPVGPERDEVTYTTSQVSKGCVAQAPNAILEVHVLFLEFPTGPSQLELTLQASKQNGTWPREVLLVLSVNSSVFLHLQALGIPLHLAYNSSLVTFQEPPGVNTTELPSFPKTQILEWAAERGPITSAAELNDPQSILLRLGQAQGSLSFCMLEASQDMGRTLEWRPRTPALVRGCHLEGVAGHKEAHILRVLPGHSAGPRTVTVKVELSCAPGDLDAVLILQGPPYVSWLIDANHNMQIWTTGEYSFKIFPEKNIRGFKLPDTPQGLLGEARMLNASIVASFVELPLASIVSLHASSCGGRLQTSPAPIQTTPPKDTCSPELLMSLIQTKCADDAMTLVLKKELVAHLKCTITGLTFWDPSCEAEDRGDKFVLRSAYSSCGMQVSASMISNEAVVNILSSSSPQRKKVHCLNMDSLSFQLGLYLSPHFLQASNTIEPGQQSFVQVRVSPSVSEFLLQLDSCHLDLGPEGGTVELIQGRAAKGNCVSLLSPSPEGDPRFSFLLHFYTVPIPKTGTLSCTVALRPKTGSQDQEVHRTVFMRLNIISPDLSGCTSKGTGGG[gap - human IgG1 Fc]
notes: also called full-length construct; Full Length

Several values for one entry are separate records, joined by “and”; a condition that tells them apart may be missing. Equal values may be shown once. One block for each binder: values may come before it.
